We go through 29 molecules from PubChem BioAssay AID1745853 (National Center for Advancing Translational Sciences (NCATS), 2022).

Where “and” joins values, the source holds several entries; their conditions need not be identical. Equal entries are not always repeated. This is one part of the list. Further columns of the screen follow, without active or inactive calls.

What all share (assay): Primary Screen for Target Class Profiling of Small Molecule Inhibitors of Methyltransferases
In experiment [1] the target is Glycine N-methyltransferase (Homo sapiens) (UniProt Q14749). To be noted: purified enzyme, MTase-Glo SAH luminescence; measured here: GNMT inhibition; at 40 µM; stronger effect = lower value. The essentials:
(§1)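 Each enzyme was reacted with SAM and its substrate, with compounds tested once at 40 uM; SAH formed was read by MTase-Glo luminescence.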

For experiment [2], the target named is Guanidinoacetate N-methyltransferase (Homo sapiens) (UniProt Q14353). To be noted: purified enzyme, MTase-Glo SAH luminescence; measured here: GAMT inhibition; at 40 µM; stronger effect = lower value. In a few lines:
as §1

In experiment [3] the target is Histamine N-methyltransferase (Homo sapiens) (UniProt P50135). To be noted: purified enzyme, MTase-Glo SAH luminescence; measured here: HNMT inhibition; at 40 µM; stronger effect = lower value. In a few lines: as §1
Experiment [4] deals with Nicotinamide N-methyltransferase (Homo sapiens) (UniProt P40261). To be noted: purified enzyme, MTase-Glo SAH luminescence; measured here: NNMT inhibition; at 40 µM; stronger effect = lower value. The essentials:
as §1

Experiment [5] deals with Phenylethanolamine N-methyltransferase (Homo sapiens) (UniProt P11086). To be noted: purified enzyme, MTase-Glo SAH luminescence; measured here: PNMT inhibition; at 40 µM; stronger effect = lower value. The essentials: as §1
On the % scale 0 is the no-effect control and ±100 the full control effect.

`Cc1ccc(C)c(N2C(=O)c3cc4occc4n3CC2(C)C(=O)NC2CCCC(C)C2C)c1` (stereo not given): the activity change, negative = inhibition in experiment [1] was -5.06%; in experiment [2], 3.15%; in experiment [3] it was 3.34%; in experiment [4] it was -12.5%; in experiment [5], -7.25%.
The matching figures for `COCCN1CCCCCC(O)c2cc(C(=O)Nc3ccc(C)cc3)ccc21` (stereo not given): -11.6%, -13.7%, -6.06%, -12.1% and -9.63%.
On to `Cc1cc(C)n2nc(C(=O)N3CCCC4(CNC(=O)O4)C3)cc2n1` (stereo not given), for which the activity change, negative = inhibition in experiment [1] was -10.8%; in experiment [2] it was -6.3%; in experiment [3], -3.34%; in experiment [4], -11.7%; in experiment [5], -6.31%.
The matching figures for `CC(C)OCCCn1c(=O)c2ccccc2n2c(=O)n(CC(=O)c3ccc(Br)cc3)nc12`: -2.31%, 2.2%, 7.99%, -10.1% and 1.68%.
On the same counts, the results for `CN(C(=O)CN1CCCn2nc(C(=O)NCc3ccc(Cl)cc3)cc2C1=O)c1ccccc1` are 3.83%, 0%, 14%, 8.54% and 7.8%.
The matching figures for `CCCn1c(=O)c2ccccc2n2c(=O)n(CC(=O)c3ccc(OC)c(OC)c3)nc12`: -8.9%, 0%, 5.27%, 4.91% and 9.77%.
`C=CCNC(=O)C[C@@H]1CCN(C(=O)c2ccccc2)C[C@@H]1CC`: the activity change, negative = inhibition in experiment [1] is -1.45%; in experiment [2] it was -2.81%; in experiment [3], -3.92%; in experiment [4], -5.35%; in experiment [5] it was 7.71%.
The matching figures for `O=C(CCC1CCCC1)N1CC(N(Cc2ccccn2)C(=O)Nc2ccccc2)C1`: -1.34%, 0.512%, 1.33%, -7.76% and 2.25%.
The matching figures for `C=C[C@H]1[C@H](O[C@@H]2O[C@H](CO)[C@@H](O)[C@H](O)[C@H]2O)OC=C(C(=O)OC)[C@H]1CCOC(=O)c1cc(O)c(O)c(O)c1`: 0%, -1.71%, -1.11%, -13.2% and 2.27%.
The matching figures for `CC(c1ccccn1)N(C)Cc1ccc(S(C)(=O)=O)cc1` (stereo not given): -5.26%, -15.9%, -3.21%, -13.7% and -4.06%.
In the case of `CO/N=C(/C(=O)N[C@@H]1C(=O)N2C(C(=O)O)=C(CSC(=O)c3ccco3)CS[C@H]12)c1csc(N)n1`, the activity change, negative = inhibition in experiment [1] was -2.66% and -13.1%; in experiment [2], 0.005% and -12.6%; in experiment [3] it was 13.8% and 8.41%; in experiment [4] it was -15.9% and -14.5%; in experiment [5], 3.5% and -1.06%.
Regarding `CC(=O)NC(C(=O)O[C@H]1CCC(C)(C)[C@@H]2CC=C3C(=O)OCC3(O)[C@@]12C)C(C)C` (stereo not given in full), the activity change, negative = inhibition in experiment [1] is 0%; in experiment [2] it was 2.75%; in experiment [3] it was 4%; in experiment [4] it was -10%; in experiment [5], 4.79%.
For the molecule `CC1(C(=O)NC2CCCCC2)Cn2c(cc3ccccc32)C(=O)N1Cc1ccccn1` (stereo not given), the activity change, negative = inhibition is -2.11% in experiment [1]; 7.31% in experiment [2]; 1.95% in experiment [3]; 0.7% in experiment [4]; 0.103% in experiment [5].
The matching figures for `CCOC(=O)c1cc2n(n1)CC(C)(C(=O)NCc1ccc(Cl)cc1)N(c1ccc(F)cc1)C2=O` (stereo not given): 3.09%, 3.76%, 8.67%, 1.11% and 3.39%.
The matching figures for `CCC(=O)N(C1CCOCC1)C1CCN(S(=O)(=O)c2c(C)nn(C)c2C)CC1`: -4.02%, 0.646%, 0.537%, 0.649% and 0.125%.
On the same counts, the results for `COC(=O)CNC(=O)N1CCCCCCNC(=O)[C@@H]2C[C@@H](c3nc(-c4cccnc4)no3)C[C@@H]21` are -2.49%, -0.271%, 0.512%, -3.69% and -1.72%.
Consider `COc1cccc(N2CCN(S(=O)(=O)c3cc4[nH]c(=O)[nH]c4cc3Br)CC2)c1`, for which the activity change, negative = inhibition in experiment [1] amounted to 12.1%; in experiment [2] it was 0.702%; in experiment [3], 10.6%; in experiment [4], 2.09%; in experiment [5], 4.75%.
On the same counts, the results for `CC1CCC(NC(=O)C2(C)Cn3c(cc4occc43)C(=O)N2CCCN2CCCCC2)CC1` (stereo not given) are 7.37%, 0%, 3.29%, 8.92% and 4.24%.
As for `COCCNC(=O)[C@H]1C[C@H](Oc2cccnc2)CN1C(=O)Nc1cccc(C)c1`, the activity change, negative = inhibition in experiment [1] is -3.56%; in experiment [2], -4.07%; in experiment [3], -1.33%; in experiment [4] it was -2.28%; in experiment [5] it was -0.696%.
As to `COc1ccc(-c2cc3n(n2)CC(C)(C(=O)NCc2ccccc2)N(CCc2ccc(SC)cc2)C3=O)cc1` (stereo not given), the activity change, negative = inhibition in experiment [1] is 4.13%; in experiment [2], 0%; in experiment [3] it was 3.9%; in experiment [4], 5.38%; in experiment [5], -0.555%.
The matching figures for `CC(O)C1NC(=O)C2CCCN2C1=O` (stereo not given): 2.57%, 4.22%, 10.2%, -7.49% and -3.26%.
On the same counts, the results for `CN(Cc1ccccc1)C(=O)CCc1nc(C2CCCN2C(=O)C2CCC2)no1` (stereo not given) are -1.7%, -0.294%, 0.682%, -3.1% and 10.5%.
Take `CN(C(=O)CCCOc1ccc2[nH]c(=O)ccc2c1)C1CCCCC1`: the activity change, negative = inhibition in experiment [1] was -0.242%; in experiment [2], 11.1%; in experiment [3] it was -11.8%; in experiment [4], -9.5%; in experiment [5] it was 5.92%.
On the same counts, the results for `CC(C)CCn1c(=O)c2ccccc2n2c(SCC(=O)Nc3ccc(Cl)cc3)nnc12` are -0.976%, 2.96%, 3.67%, -8.34% and -1.72%.
On the same counts, the results for `CCOC(=O)C1CCCN(C(=O)c2cc(-c3ccc(Cl)cc3Cl)c3nncn3n2)C1` (stereo not given) are -5.5%, -5.68%, -2.17%, -9.23% and -12.2%.
The matching figures for `CC1(C(=O)NC2CCCCC2)Cc2ccccc2C(=O)N1CCc1ccccc1` (stereo not given): -3.99%, 1.02%, 6.67%, 0.69% and 1.66%.
For the molecule `Cc1ccccc1NC(=O)c1cc2n(n1)CC(C)(C(=O)NC1CCCCCC1)N(C)C2=O` (stereo not given), the activity change, negative = inhibition in experiment [1] was 5.01%; in experiment [2], 0.99%; in experiment [3], 6.08%; in experiment [4] it was 9.28%; in experiment [5] it was 2.98%.
On the same counts, the results for `CN1C(=O)c2cc(C(=O)NCc3ccccc3Cl)nn2CC1(C)C(=O)NC1CCCCCC1` (stereo not given) are 4.5%, 6.06%, 9.3%, 9.1% and 2.96%.
The matching figures for `CC/C=C\C(O)C(O)C1=C(C)C(=O)C2(O1)C(=O)NC(OC)(C(=O)c1ccccc1)C2O` (stereo not given): 0%, -6.2%, 3.4%, -18.5% and 0.245%.
